According to PubChem BioAssay AID504832 (National Center for Advancing Translational Sciences (NCATS), 2011):
Screen size: about 310,000 compounds; about 18,000 (5.8%) were called active. The inconclusive results got no clear call from the source; some entries with a clear call stand among them for comparison. Calls come from the whole dose curve; as a rule, active = well fitted inhibition curve with a large enough effect; inconclusive = small, poorly fitted or top-dose-only effect, or another doubt; inactive = no such curve, though single readings can be large or run the other way. No potency is given beside an inconclusive call; the fits are too rough.

Test: Primary qHTS for delayed death inhibitors of the malarial parasite plastid, 48 hour incubation
Settings: P. falciparum luciferase growth in erythrocytes; series mostly up to 28.7 µM; activity change, negative = inhibition: at the top concentration
How it was run: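 Erythrocytes infected with P. falciparum carrying an integrated firefly luciferase reporter (2% hematocrit, 0.1% parasitemia final) were exposed to compounds in RPMI 1640 with 0.5% Albumax at 37 C, 5% CO2. Growth inhibition was scored as reduced luminescence.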
% is set by controls: 0 for no effect and ±100 for the full control effect; potency is the fitted concentration of half-maximal effect; tags give direction and shape of the fitted curve.

SMILES | Potency | activity change, negative = inhibition
Cc1cccc2sc(N(CCCN(C)C)C(=O)c3ccco3)nc12 | inconclusive [inhibitor, single point] | 
COC(=O)[C@@]1(Cc2ccc(F)cc2)[C@H]2c3cc(C(=O)N4CCCC4)n(CCc4ccc(O)c(O)c4)c3C[C@H]2CN1C(=O)c1ccccc1 | inconclusive [inhibitor, full curve, poor fit] | 
CCN1C(=O)[C@H]2[C@@H](c3ccc(Cl)cc3)N3C(=O)CN(CC4CC4)C(=O)[C@@]3(C)[C@H]2C1=O |  | inactive: 20.9%
CC(C)(C)c1ccc(-c2nnc(SCC(=O)O)n2N)cc1 |  | inactive: 5.08%
Cc1ccc(C(=O)OCCc2c(C)[nH]n(-c3ccccc3)c2=O)cc1 | inconclusive [inhibitor, single point] | 
C/C(=N\N1C(=O)CSC1=S)c1ccc(Br)cc1 | inconclusive [inhibitor, partial curve, poor fit] | 
COc1ccc(C(=O)Nc2ccc(OCC(F)(F)C(F)F)c(C(F)(F)F)c2)cc1OC | inconclusive [inhibitor, single point] | 
CC1(c2ccccc2Cl)NC(=O)N(CC(=O)N2CCN(S(=O)(=O)c3ccccc3)CC2)C1=O (centres undefined) | inconclusive [inhibitor, single point] | 
O=C(c1cccn2c(=O)c3cc(Cl)ccc3nc12)N1CCN(Cc2ccc3c(c2)OCO3)CC1 | inconclusive [inhibitor, single point] | 
CCc1cccc(C)c1NC(=O)CCCSc1nc2ccccc2s1 | inconclusive [inhibitor, partial curve, poor fit] | 
Cc1ccccc1C(=O)NCCc1nnc(SCC(=O)Nc2nc(-c3ccccc3)cs2)n1C |  | inactive: -3.5%
CCO[C@H]1OC(C(=O)NCc2ccccc2)=C[C@@H](C2CCCCC2)[C@@H]1CCCO | inconclusive [inhibitor, partial curve] | 
O=C(CSc1nc2ccccc2o1)NC(=O)NCc1ccccc1 |  | inactive: 19.6%
O=C(NCCc1ccc(Cl)cc1)C1CCN(S(=O)(=O)c2ccc(Br)s2)CC1 | inconclusive [inhibitor, single point] | 
COCCn1c(C)cc(C(=O)CSc2nc(C)cc(C)c2C#N)c1C | inconclusive [inhibitor, single point] | 
Cc1cccc(NC(=O)CSCC(=O)Nc2cc(S(=O)(=O)N3CCOCC3)ccc2OC(C)C)c1 | inconclusive [inhibitor, partial curve] | 
CCOc1cccc(N)c1 | inconclusive [inhibitor, single point] | 
CN(Cc1ccc(-n2cccn2)cc1)Cc1cn(C)nc1-c1ccccc1F |  | inactive: -19.8%
Cn1c(Cc2cccc3ccccc23)nnc1SCC(=O)N1CCN(c2ccccc2)CC1 | inconclusive [inhibitor, single point] | 
CN(C)c1cc2c(cc1NS(=O)(=O)c1ccccc1)n(C)c(=O)n2C |  | inactive: 11.1%
CCOC(=O)c1c(S(=O)(=O)NCC(=O)N2CCN(c3ccc(F)cc3)CC2)c(C)n(C)c1C | inconclusive [inhibitor, single point] | 
COc1ccc(CNC(=O)c2cc3c(=O)n4ccccc4nc3n(CC3CCCO3)c2=N)cc1 (centres undefined) | inconclusive [inhibitor, partial curve] | 
COc1ccnc2c1c(=O)n(Cc1ccccc1Cl)c(=O)n2C |  | inactive: 4.63%

SMILES | Potency | activity change, negative = inhibition
CC(C)Oc1ccc(C(=O)NC(=S)Nc2ccc(Cl)c(C(=O)O)c2)cc1 | inconclusive [inhibitor, partial curve, poor fit] | 
COc1cccc(CNC(=O)CCNS(=O)(=O)c2cccc3nonc23)c1 |  | inactive: 2.35%
C(=N\NC(=Nc1ccccc1)c1ccccn1)/c1ccccn1 | inconclusive [inhibitor, single point] | 
Fc1ccc(-n2cc(-c3ccccc3)c3c(NN4CCOCC4)ncnc32)cc1 | active: 14.7 µM | 
C=CCn1c(=O)c2ccccc2n2c(SCc3c(C(=O)OCC)oc4ccccc34)nnc12 | inconclusive [inhibitor, full curve] | 
Cc1ccc(NC(=O)/C(=C/c2cccs2)NC(=O)c2ccco2)c(C)c1 |  | inactive: -19.7%
CCN(CC)CCN(C(=O)c1ccc2c(c1)CCCC2)c1nc2ccc(F)cc2s1 | inconclusive [inhibitor, single point] | 
CC(C)(C)NCC(O)c1ccccc1Cl (centres undefined) | inconclusive [inhibitor, partial curve] | 
Cc1ccc2ccccc2c1COC(=O)c1nonc1N |  | inactive: -0.685%
CCCc1cc(C(=O)N2CCCC(N3CCN(c4ccc(F)cc4)CC3)C2)no1 (centres undefined) | inconclusive [inhibitor, single point] | 
CCCCC/C(=N\NC(=O)Nc1ccccc1)c1ccccc1 | inconclusive [inhibitor, single point] | 
CCOC(=O)CCNC(=O)CCc1nnc(CCCc2ccccc2)o1 |  | inactive: 14.1%
CCOC(=O)c1sc(NC(=O)c2cc(-c3ccccc3)nc3ccccc23)c(C#N)c1C |  | inactive: 30.8%
COc1ccc2[nH]c(=O)c(CN(c3ccccc3)S(=O)(=O)c3ccccc3)cc2c1 | inconclusive [inhibitor, full curve, poor fit] | 
COC(=O)c1cc(CSC(=N)N)ccc1OCCC(C)C | active: 4.65 µM | 
O=C(Nc1cc(C(F)(F)F)ccc1Cl)C(Sc1ccccn1)c1ccccc1 (centres undefined) | inconclusive [inhibitor, partial curve, poor fit] | 
COC(=O)C1=C(c2cccc(OCc3ccccc3)c2)C[C@@H]2CC[C@H]1N2C(=O)NCCc1ccc(F)cc1 | active: 7.38 µM | 
O=C(O)c1cccc(NC(=S)NC(=O)c2ccc(-c3ccccc3)cc2)c1 |  | inactive: 43.3%
C=CCN1CC(c2nc3ccccc3n2Cc2cccc3ccccc23)CC1=O (centres undefined) | inconclusive [inhibitor, single point] | 
Cc1onc(-c2c(Cl)cccc2Cl)c1C(=O)NCc1cccs1 |  | inactive: 42.2%
CCC(c1nnnn1CS(=O)(=O)c1ccc(C)cc1)N1CCC(C(N)=O)CC1 (centres undefined) | inconclusive [inhibitor, partial curve, poor fit] | 
O=C(Nc1nc2ccc(S(=O)(=O)N3CCCC3)cc2s1)c1ccccn1 | inconclusive [inhibitor, partial curve, poor fit] | 
Cc1cc(C)n2nc(C(=O)N3CCCC(N4CCN(c5ccccc5C)CC4)C3)cc2n1 (centres undefined) | inconclusive [inhibitor, partial curve, poor fit] | 

SMILES | Potency | activity change, negative = inhibition
Cc1[nH]c2ccccc2c1C(=O)CSC(=S)N(C)C1CCCCC1 | inconclusive [inhibitor, single point] | 
CN1CCN(S(=O)(=O)c2cccc(C(=O)Oc3ccccc3Cl)c2)CC1 |  | inactive: 1.85%
O=C1Nc2ccccc2/C1=C/c1cnc(-c2ccccc2)[nH]1 |  | inactive: 116%
O=C(CC1Nc2ccccc2NC1=O)NCC1COc2ccccc2O1 (centres undefined) | active: 11.7 µM | 
CC(=O)c1cn(-c2ccc(Cl)cc2)c(=O)n(Cc2ccc(Br)cc2)c1=O | inconclusive [inhibitor, partial curve, poor fit] | 
COc1ccc(OCCSc2nnc(C)n2-c2ccccc2)cc1 | inconclusive [inhibitor, single point] | 
CCCn1c2ccccc2c2nnc(SCc3[nH]c(=O)[nH]c3C(=O)CCCCC(=O)OCC)nc21 | inconclusive [inhibitor, single point] | 
C=CCNC(=O)c1cc(-c2ccc3c(c2)OCO3)on1 |  | inactive: 111%
COc1cc(O)c2c(c1)OC(c1ccc(O)cc1)CC2=O (centres undefined) | inconclusive [inhibitor, single point] | 
O=C(NC(=S)NCCC1=CCCCC1)c1cccnc1 | inconclusive [inhibitor, partial curve, poor fit] | 
Brc1cc2[nH]cnc2c2ccccc12 | inconclusive [inhibitor, single point] | 
Cc1ccccc1/C=N/Nc1ccnc2cc(Cl)ccc12 | active: 0.828 µM | 
COCCCNC(=O)CN(CCc1ccccc1)S(=O)(=O)c1ccc(C)cc1 | inconclusive [inhibitor, single point] | 
CC(=O)c1ccc(N2CCN(S(=O)(=O)c3ccc4c5c3CC(=O)N5CC(C)S4)CC2)cc1 (centres undefined) | active: 3.29 µM | 
Cc1nc2ccccc2n1CC(O)Cn1c(C(F)(F)F)nc2ccccc21 (centres undefined) | inconclusive [inhibitor, single point] | 
O=[N+]([O-])c1ccc2nc(-c3ccccc3)oc2c1 |  | inactive: 350%
COc1cccc(OC)c1C(=O)N1CCOCC1 |  | inactive: -8.06%
O=C1C=C(c2ccc(-c3ccccc3)cc2)C[C@@H](c2ccc(Cl)cc2)C1 | inconclusive [inhibitor, single point] | 
CN(C(=O)c1cc(COc2ccc(F)c(F)c2)on1)C1CCOC1 (centres undefined) |  | inactive: 18.8%
CCOc1ccccc1NC(=O)c1ccc(S(=O)(=O)N(C)c2ccccc2)cc1 | inconclusive [inhibitor, partial curve] | 
CCOC(=O)/C(=C\c1cccnc1)C(=O)c1cc(C(C)=O)c(Nc2ccccc2)s1 | inconclusive [inhibitor, single point] | 
O=C(NC(=S)Nc1ccccc1N1CCCC1)c1ccccc1[N+](=O)[O-] | inconclusive [inhibitor, single point] | 
O=c1[nH]c(=O)n(CCC2=CCCCC2)c(O)c1/C=N/Nc1ccccc1 |  | inactive: 1.04%
